Here are results for 36 sequences from the supplement of paper PMC10126150.

Values marked as one replicate rest on one cluster of the flow cell; about a third of the high ones do not repeat.

This data set has as its system ATP. Nature of the data set: switch fluorescence ratio, 500 uM ATP over buffer (Cy3 cluster intensity, sum of 5 cycles each) (fold (ratio)); higher = stronger signal-on switching upon ATP binding; sequences stand for … in TCGTCGGCAGCGTCAGATGTGTATAAGAGACAGTTTTTTTTTTTTTTTTTTTTTTTTT…TC. As to conditions: aptamer strand: ATP DNA aptamer (quencher-CACCTGGGGGAGTATTGCGGAGGAAGG + anchor), 100 nM annealed; ATP concentration: 500 uM; one replicate. Summed up:
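Cy3-labelled switching-strand clusters on a modified Illumina MiSeq flow-cell were annealed to 100 nM quencher-labelled ATP aptamer and imaged first in selection buffer, then after 15 min with 500 uM ATP at 22 °C. NaOH stripping and re-annealing separated each of five buffer/ATP cycles, and clusters outside 100-1000 RFU were excluded. The fluorescence ratio sums target-cycle Cy3 intensity over buffer-cycle Cy3 intensity per cluster and averages it per switch-domain sequence.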
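Also: ATP exposure 15 min at 22 °C before imaging.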

Consider GTTTGAATTC, for which the switch fluorescence ratio amounted to 0.97.

For AAAGCCCCGT, the switch fluorescence ratio worked out at 0.97.

In the case of CTGATGTAGT, the switch fluorescence ratio came to 1.01.

GGTGATTGGG: the switch fluorescence ratio was determined as 0.958.

Consider ATACACGTAC, for which the switch fluorescence ratio stood at 1.69.

For the sequence CTGCCGGGAA, the switch fluorescence ratio worked out at 1.04.

With GGAGGCGCGC, the switch fluorescence ratio amounted to 0.946.

Take GTTCAATTCA: the switch fluorescence ratio is 1.02.

In the case of GTCCGTTAG, the switch fluorescence ratio stood at 1.01.

Regarding GCATCAAAAG, the switch fluorescence ratio was 1.04.

As for TTCCTGGAAT, the switch fluorescence ratio came to 1.94.

Consider AACGTGCGGG, for which the switch fluorescence ratio came out at 0.972.

For the sequence CAAGCGTACG, the switch fluorescence ratio was found to be 1.03.

Take ATACGCGACT: the switch fluorescence ratio was 1.43.

In the case of TAGGCATCAT, the switch fluorescence ratio was 1.03.

On to ATCAGCAAGA, for which the switch fluorescence ratio turned out to be 1.03.

Take ATAACGAT: the switch fluorescence ratio worked out at 0.981.

GGCGTCAT: the switch fluorescence ratio was 1.02.

In the case of GGCTGTAGCT, the switch fluorescence ratio turned out to be 1.01.

As for CGATGGCAGC, the switch fluorescence ratio came to 1.38.

Take GGTAGGGGCA: the switch fluorescence ratio is 1.

CTTAAATACT: the switch fluorescence ratio is 1.31.

On to AGAGCAGGGT, for which the switch fluorescence ratio came out at 1.01.

As for AAAATAAGG, the switch fluorescence ratio amounted to 0.978.

With CATCCGTTGG, the switch fluorescence ratio was determined as 1.46.

Take AATGCTTATT: the switch fluorescence ratio is 0.955.

As to GGATAACGTG, the switch fluorescence ratio came out at 0.971.

CGTGGTGGTC: the switch fluorescence ratio was found to be 1.01.

As to TGAACCCATC, the switch fluorescence ratio amounted to 1.02.

Take TTTTGGTAG: the switch fluorescence ratio was found to be 0.997.

On to GTGATAG, for which the switch fluorescence ratio was 1.41.

Consider AGGTCGCGAT, for which the switch fluorescence ratio worked out at 1.03.

For TTGGGCTTCA, the switch fluorescence ratio amounted to 1.01.

Turning to TGGTCAAAGG, the switch fluorescence ratio turned out to be 0.946.

GATAGTTG: the switch fluorescence ratio was determined as 1.04.

As for AGCAAAAATT, the switch fluorescence ratio was found to be 0.991.
